Test results: PubChem BioAssay AID504832 (National Center for Advancing Translational Sciences (NCATS), 2011)
Among all 310,000 compounds or so, about 18,000 (5.8%) were called active. This list was built around the results that the source calls inconclusive (neither active nor inactive); the mix of calls is not that of the screen. Calls follow the shape of the dose curve; as a rule, active = well fitted inhibition curve with a large enough effect; inconclusive = small, poorly fitted or top-dose-only effect, or another doubt; inactive = no such curve, though single readings can be large or run the other way. Potencies of inconclusive entries are left out as doubtful fits.

experiment: Primary qHTS for delayed death inhibitors of the malarial parasite plastid, 48 hour incubation; settings: P. falciparum luciferase growth in erythrocytes; series mostly up to 28.7 µM; activity change, negative = inhibition: at the top concentration
Outline: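 Luciferase-expressing P. falciparum in infected erythrocytes (2% hematocrit, 0.1% parasitemia final) in RPMI 1640/0.5% Albumax were exposed to compound for 48 hours at 37 C, 5% CO2; growth read as luminescence.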
% is scaled to controls: 0 for no effect and ±100 for the full control effect; potency is read from the fitted curve at half-maximal effect; tags tell the direction and shape of the fitted curve.

Row | Compound | activity change, negative = inhibition | Potency
1 | CC(=O)Nc1ccc(NC(=O)C(C)OC(=O)CNS(=O)(=O)c2ccc(Br)cc2Cl)cc1 (stereo not given) | inactive: 18.2% | 
2 | COC(=O)C1=C(C)N(C)C(C)=C(C(=O)OC)C1c1cccc(Br)c1 |  | active: 8.28 µM
3 | O=C(c1ccc(Oc2ccc([N+](=O)[O-])cc2)cc1)N1CCCCCC1 | inactive: 26.3% | 
4 | Cc1cc(=O)oc2c(N)c(O)ccc12 | inactive: -8.12% | 
5 | COc1ccc(CNc2nc(-c3ccccc3)nn2C(=O)c2ccc([N+](=O)[O-])cc2)cc1 | inactive: 63% | 
6 | Cc1ccc(OCCNC(=O)c2cccc(S(=O)(=O)N3CCN(C)CC3)c2)cc1 |  | inconclusive [inhibitor, single point]
7 | O=C(O)c1ccc(-n2cccn2)nc1 | inactive: 9.97% | 
8 | Cc1cc(S(=O)(=O)N2CCN(CC(=O)N(C)Cc3ccccc3)CC2)ccc1Br |  | inconclusive [inhibitor, single point]
9 | COc1ccccc1C1Nc2cccc3cccc(c23)N1 |  | inconclusive [inhibitor, single point]
10 | Cc1cccc(CN2C(=O)N/C(=C/c3cc(C)n(-c4ccccn4)c3C)C2=O)c1 |  | active: 13.1 µM
11 | CCN1CCN(CCC(=O)Nc2cccc(C)c2)CC1 | inactive: 4.64% | 
12 | Nc1nc(-c2ccco2)nn1C(=O)c1ccc([N+](=O)[O-])cc1 | inactive: 23.9% | 
13 | Cc1ccc(/C=C2/C(=N)N3N=C(CC(=O)N4CCCC4)SC3=NC2=O)cc1 |  | inconclusive [inhibitor, partial curve, poor fit]
14 | O=C(NC1CCCCC1)C(c1ccncc1)N(Cc1ccc2c(c1)OCO2)C(=O)C(F)(F)F (stereo not given) |  | active: 9.28 µM
15 | CCCCCCn1nc(C(=O)Nc2nc3c(s2)CCCC3)c2ccccc2c1=O |  | inconclusive [inhibitor, single point]
16 | Cc1ccc(OC(C)C(=O)Nc2ccc3c(c2)n(C)c(=O)n3C)c(C)c1 (stereo not given) | inactive: -17.2% | 
17 | CCN(C(=O)CN1CC(C)OC(C)C1)c1c(N)n(Cc2ccccc2)c(=O)[nH]c1=O (stereo not given) | inactive: 1.49% | 
18 | COc1cc(OC)cc(C(=O)Nc2ccccc2C(=O)NC2CC2)c1 |  | inconclusive [inhibitor, single point]
19 | CCCN1CCn2c3c(c4cc(Br)ccc42)CCCC31 (stereo not given) |  | active: 8.28 µM
20 | COc1ccccc1C(=O)Nc1ccc(C2=NNC(=O)CC2C)cc1 (stereo not given) | inactive: 32.1% | 
21 | COc1ccc(CCNC(=O)c2coc3ccccc3c2=O)cc1OC |  | inconclusive [inhibitor, single point]
22 | Cc1sc2nc(CN(Cc3cccs3)C(=O)NC3CCCCC3)[nH]c(=O)c2c1C |  | inconclusive [inhibitor, partial curve, poor fit]
23 | CN1CCc2c(c3c(n2C)CCN(C)C3c2ccc(F)cc2)C1c1ccc(F)cc1 (stereo not given) |  | inconclusive [inhibitor, partial curve]
24 | CN=C(SCc1cc2c(cc1Cl)OCO2)c1c(O)n(C)c(=O)n(C)c1=O |  | inconclusive [inhibitor, single point]

Row | Compound | activity change, negative = inhibition | Potency
25 | O=C(CN1C(=O)NC(c2ccccc2)(c2ccccc2)C1=O)NCC(=O)Nc1ccc(F)cc1 |  | inconclusive [inhibitor, single point]
26 | COc1cc(-c2noc(CCCC(=O)Nc3ccc(C(N)=O)cc3)n2)cc(OC)c1OC |  | inconclusive [inhibitor, single point]
27 | OC(CN1CCOCC1)(c1ccccc1)c1ccccn1 (stereo not given) | inactive: 16.7% | 
28 | O=C(NCC(c1ccco1)N1CCN(c2ccccc2F)CC1)c1cccs1 (stereo not given) |  | inconclusive [inhibitor, partial curve, poor fit]
29 | CCc1nnc(NC(=O)CSc2nc3c(c(=O)n2CC)SC(C)C3)s1 (stereo not given) |  | inconclusive [inhibitor, partial curve]
30 | CC(C)[C@H]1C(=O)Nc2ccccc2N1C(=O)N[C@@H](Cc1ccccc1)C(=O)N[C@@H](Cc1ccccc1)C(=O)O | inactive: -2.65% | 
31 | O=c1cc(CSc2ccccn2)c2ccccc2[nH]1 | inactive: 7.35% | 
32 | O=C(COc1ccc(S(=O)(=O)N2CCCCC2)cc1)N1CCOCC1 | inactive: 0.078% | 
33 | COc1ccc(OC)c(S(=O)(=O)Nc2c(NC3CCCCC3)c3ccccc3oc2=O)c1 |  | inconclusive [inhibitor, partial curve, poor fit]
34 | CC(C)(C)c1nc(NC(=O)Nc2ccccc2)sc1Br |  | inconclusive [inhibitor, single point]
35 | O=C(O)c1ccc(-c2ncc[nH]2)cc1 |  | inconclusive [inhibitor, full curve, poor fit]
36 | CO[C@H]1C[C@@H]2CC[C@@H](C)[C@@](O)(O2)C(=O)C(=O)N2CCCC[C@H]2C(=O)O[C@H]([C@H](C)C[C@@H]2CC[C@@H](OC(=O)C(C)(CO)CO)[C@H](OC)C2)CC(=O)[C@H](C)/C=C(\C)[C@@H](O)[C@@H](OC)C(=O)[C@H](C)C[C@H](C)/C=C/C=C/C=C/1C | inactive: 13.2% | 
37 | Cc1ccc2cc(CCNC(=O)c3cccc([N+](=O)[O-])c3)c(=O)[nH]c2c1 | inactive: -26.7% | 
38 | Cc1[nH]n(-c2ccccc2)c(=O)c1C=NCC1CCCO1 (stereo not given) | inactive: 20.8% | 
39 | Cc1ccc(-c2csc3nc[nH]c(=O)c23)c(C)c1 |  | inconclusive [inhibitor, partial curve, poor fit]
40 | COC1Cc2ccccc2N(C(=O)N2CCN(CCO)CC2)c2ccccc21 (stereo not given) |  | inconclusive [inhibitor, full curve, poor fit]
41 | CCN(CC)c1ccc(/C=N/Nc2nc(C)cc(C)n2)c(O)c1 |  | active: 7.38 µM
42 | COc1ccc(NC(=O)CN(C)C(=O)c2cn(-c3ccccc3)nc2-c2ccc(OC)cc2)cc1 |  | active: 13.1 µM
43 | COc1ccc(CCCc2nnc(SCC(=O)Nc3nccs3)n2C)cc1C |  | inconclusive [inhibitor, partial curve]
44 | COc1ccc(N2CCN(C(c3cccs3)C(C)NC(=O)C(=O)N3CCCC3)CC2)cc1 (stereo not given) |  | inconclusive [inhibitor, partial curve]
45 | COc1ccc(/C=C/C(=O)N(C)CC(=O)Nc2cccc(F)c2)cc1S(=O)(=O)N1CCCCC1 |  | inconclusive [inhibitor, single point]
46 | COCCn1nnnc1CN(CCc1ccccc1)Cc1cc2ccc(C)cc2[nH]c1=O |  | inconclusive [inhibitor, partial curve, poor fit]
47 | CCOc1cc(NC(=S)Nc2ccccc2)c(OCC)cc1NC(=O)c1ccc(OC)cc1 |  | active: 11.7 µM
48 | CCNc1nc(NC(C)C)nc(N(C#N)CCOc2ccccc2)n1 |  | inconclusive [inhibitor, single point]

Row | Compound | activity change, negative = inhibition | Potency
49 | COc1cccc(CC(=O)NC2CCCN(Cc3ccc(Cl)cc3)C2)c1 (stereo not given) | inactive: -14.6% | 
50 | Cc1occc1C(=O)N/N=C/c1sc(N2CCOCC2)nc1-c1ccccc1 |  | inconclusive [inhibitor, partial curve, poor fit]
51 | O=C(Nc1ccc(F)cc1)c1oc2ccccc2c1NC(=O)C1CCCC1 |  | inconclusive [inhibitor, single point]
52 | CCOc1ccc(NC2c3ccccc3C(=O)N2Cc2ccco2)cc1 (stereo not given) |  | inconclusive [inhibitor, single point]
53 | CC1(C)CC2CC(C)(CN2C(=O)c2cc(-c3ccccc3)on2)C1 (stereo not given) |  | inconclusive [inhibitor, partial curve, poor fit]
54 | Cc1ccc(S(=O)(=O)[N-]c2nc3ccccc3nc2-[n+]2cc(C)cc(C)c2)cc1 | inactive: -11.3% | 
55 | Clc1ccc(-c2csc(N/N=C/c3ccc4c(c3)OCO4)n2)cc1 |  | inconclusive [inhibitor, single point]
56 | O=C(COC(=O)/C=C/c1cccc(C(F)(F)F)c1)Nc1cccc2ccccc12 |  | inconclusive [inhibitor, partial curve, poor fit]
57 | N#Cc1cc2ccccc2nc1SCC(=O)Nc1ccccc1N1CCOCC1 | inactive: 12.6% | 
58 | O=[N+]([O-])c1ccccc1-c1ccc(C(=S)N2CCCCC2)o1 | inactive: 136% | 
59 | CCC[C@@H]1C[C@@H](C(=O)N[C@@H]([C@H]2O[C@H](SC)[C@H](O)[C@@H](O)[C@H]2O)[C@@H](C)O)N(C)C1 |  | active: 2.69 µM
60 | CC(C)CC(OC(=O)CC1Sc2ccccc2NC1=O)C(=O)NC1CCCC1 (stereo not given) |  | inconclusive [inhibitor, single point]
61 | Cc1nnc(NC(=O)NCN2C(=O)C3C4C=CC(C4)C3C2=O)s1 (stereo not given) |  | inconclusive [inhibitor, partial curve, poor fit]
62 | COc1cc(OC)cc(C(=O)NNC(=O)CNC(=O)c2cccs2)c1 | inactive: 3.3% | 
63 | Cn1c(SCC(=O)c2ccc3c(c2)OCCO3)nnc1C1CC1 | inactive: 25.9% | 
64 | Cc1[nH][nH]c(=O)c1C=NCc1cccc(C(F)(F)F)c1 |  | inconclusive [inhibitor, partial curve, poor fit]
65 | Cc1cccc(NC(=O)c2ccc3c(=O)n(CC4CCCO4)c(=S)[nH]c3c2)c1 (stereo not given) |  | inconclusive [inhibitor, single point]
66 | CN(Cc1ccccc1)c1ccc([N+](=O)[O-])cc1C(=O)O | inactive: -7.81% | 
67 | COc1ccc2c(c1)CCc1c(C(=O)NC3CCCCC3)noc1-2 | inactive: 176% | 
68 | O=C(CSc1nc(O)cc(=O)n1-c1ccccc1)Nc1nc2ccccc2s1 | inactive: 1.02% | 
69 | CN(C1=C(N2CCCCC2)C(=O)c2ccccc2C1=O)c1ccccc1 |  | active: 8.28 µM
70 | CCOc1ccc(Oc2ccc(-c3nnc(-c4ccccc4)o3)cc2[N+](=O)[O-])cc1 |  | inconclusive [inhibitor, single point]
